{"sequences": {"note": "Amino acid sequences for entries named in this document (tags omitted).", "UniProt P55271": "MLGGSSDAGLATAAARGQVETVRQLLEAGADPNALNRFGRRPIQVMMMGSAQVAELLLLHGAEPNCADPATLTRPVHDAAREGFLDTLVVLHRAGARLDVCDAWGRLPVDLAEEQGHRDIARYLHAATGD", "UniProt P42771": "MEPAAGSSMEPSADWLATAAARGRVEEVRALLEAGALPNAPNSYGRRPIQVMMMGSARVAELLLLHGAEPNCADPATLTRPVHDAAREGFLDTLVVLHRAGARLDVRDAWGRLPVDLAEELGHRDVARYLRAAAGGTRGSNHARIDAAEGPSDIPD", "UniProt P06733": "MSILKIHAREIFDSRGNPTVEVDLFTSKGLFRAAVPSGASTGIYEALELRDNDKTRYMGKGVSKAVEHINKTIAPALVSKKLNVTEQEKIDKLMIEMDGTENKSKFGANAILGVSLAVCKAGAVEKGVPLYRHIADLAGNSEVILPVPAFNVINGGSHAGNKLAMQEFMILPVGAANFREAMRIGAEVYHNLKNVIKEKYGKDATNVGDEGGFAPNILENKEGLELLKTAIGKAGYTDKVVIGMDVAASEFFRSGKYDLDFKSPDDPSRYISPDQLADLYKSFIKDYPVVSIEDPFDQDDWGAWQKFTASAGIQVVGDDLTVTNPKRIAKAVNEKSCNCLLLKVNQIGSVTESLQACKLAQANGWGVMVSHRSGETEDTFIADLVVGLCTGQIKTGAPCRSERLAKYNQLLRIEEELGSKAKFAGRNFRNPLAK", "UniProt P52480": "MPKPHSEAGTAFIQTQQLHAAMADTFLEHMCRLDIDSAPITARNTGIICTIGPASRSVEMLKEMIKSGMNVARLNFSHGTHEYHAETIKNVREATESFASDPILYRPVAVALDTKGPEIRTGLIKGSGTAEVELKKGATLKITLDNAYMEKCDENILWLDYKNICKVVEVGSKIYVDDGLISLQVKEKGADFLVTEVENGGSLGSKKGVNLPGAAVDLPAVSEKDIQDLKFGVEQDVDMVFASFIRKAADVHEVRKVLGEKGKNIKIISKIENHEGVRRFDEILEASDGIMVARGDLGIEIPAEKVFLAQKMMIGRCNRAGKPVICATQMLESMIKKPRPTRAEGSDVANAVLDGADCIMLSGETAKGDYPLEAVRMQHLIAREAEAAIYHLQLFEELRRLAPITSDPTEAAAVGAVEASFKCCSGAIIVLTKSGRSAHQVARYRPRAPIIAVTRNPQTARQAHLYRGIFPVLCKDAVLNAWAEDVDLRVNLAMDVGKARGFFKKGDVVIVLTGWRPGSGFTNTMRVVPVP", "UniProt P09104": "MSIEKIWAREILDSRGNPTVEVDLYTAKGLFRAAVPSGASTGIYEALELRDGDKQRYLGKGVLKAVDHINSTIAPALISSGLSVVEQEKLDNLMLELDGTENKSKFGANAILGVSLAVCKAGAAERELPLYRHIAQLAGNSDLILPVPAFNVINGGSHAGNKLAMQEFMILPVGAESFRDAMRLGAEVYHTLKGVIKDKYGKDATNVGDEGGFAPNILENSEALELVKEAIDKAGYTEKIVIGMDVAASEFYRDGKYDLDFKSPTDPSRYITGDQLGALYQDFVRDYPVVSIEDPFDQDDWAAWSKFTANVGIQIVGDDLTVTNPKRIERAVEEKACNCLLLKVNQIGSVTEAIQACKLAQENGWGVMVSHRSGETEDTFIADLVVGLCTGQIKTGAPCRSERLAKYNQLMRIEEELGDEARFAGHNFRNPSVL"}, "source": "paper PMC8024281", "molecules": {"B1": {"name": "CDK4 (Novus), P11802 1-303 (enzyme)", "chain": "MATSRYEPVAEIGVGAYGTVYKARDPHSGHFVALKSVRVPNGGGGGGGLPISTVREVALLRRLEAFEHPNVVRLMDVCATSRTDREIKVTLVFEHVDQDLRTYLDKAPPPGLPAETIKDLMRQFLRGLDFLHANCIVHRDLKPENILVTSGGTVKLADFGLARIYSYQMALTPVVVTLWYRAPEVLLQSTYATPVDMWSVGCIFAEMFRRKPLFCGNSEADQLGKIFDLIGLPPEDDWPRDVSLPRGAFPPRGPRPVQSVVPEMEESGAQLLLEMLTFNPHKRISAFRALQHSYLHKDEGNPE"}}, "key": {"[1]": {"molecular_target": "p15 protein (Abcam) (UniProt P42772)", "assay": "ELISA; p15 (2.5 μg/ml) coated on a 96-well plate, blocked with 1% BSA; CDK4 (5 μg/ml) added with 0–40 μg/ml enolase-1, 37 °C 2 h; bound CDK4 detected with anti-CDK4 antibody, HRP, TMB, 450 nm; both purified"}, "[2]": {"molecular_target": "p15^INK4B (endogenous, mouse urothelial cells) (mouse (endogenous in urothelial cells)) (UniProt P55271)", "assay": "co-IP; total proteins of mouse urothelial cells expressing HRas* (with or without p15); immunoprecipitation of endogenous p15 or p16, western blot"}, "[3]": {"molecular_target": "Myc-tagged p15^INK4B (wild type) (human) (UniProt P42772)", "assay": "co-IP; UMUC3 cells induced to express the Myc-tagged protein; RIPA buffer (25 mM Tris-HCl pH 7.6, 150 mM NaCl, 1% NP-40); anti-Myc-tag antibody overnight at 4 °C, protein A/G agarose 4 h; western blot with densitometry; also done after shRNA knock-down of enolase-1"}, "[4]": {"molecular_target": "Myc-tagged p16^INK4A (wild type) (human) (UniProt P42771)", "assay": "co-IP; UMUC3 cells induced to express the Myc-tagged protein; RIPA buffer (25 mM Tris-HCl pH 7.6, 150 mM NaCl, 1% NP-40); anti-Myc-tag antibody overnight at 4 °C, protein A/G agarose 4 h; western blot with densitometry; also done after shRNA knock-down of enolase-1"}, "[5]": {"molecular_target": "Histidine-tagged p16^INK4A (wild type), E. coli-produced (human) (UniProt P42771)", "assay": "pull-down; His-tagged protein from E. coli incubated with total UMUC3 lysate (RIPA buffer) overnight at 4 °C, Ni-NTA column, eluted with increasing imidazole; western blot with densitometry; only the target purified"}, "[6]": {"molecular_target": "Histidine-tagged p15^INK4B (wild type), E. coli-produced (human) (UniProt P42772)", "assay": "pull-down; His-tagged protein from E. coli incubated with total UMUC3 lysate (RIPA buffer) overnight at 4 °C, Ni-NTA column, eluted with increasing imidazole; western blot with densitometry; only the target purified"}, "[7]": {"molecular_target": "T1, p15 protein (Abcam), P42772", "T1 chain": "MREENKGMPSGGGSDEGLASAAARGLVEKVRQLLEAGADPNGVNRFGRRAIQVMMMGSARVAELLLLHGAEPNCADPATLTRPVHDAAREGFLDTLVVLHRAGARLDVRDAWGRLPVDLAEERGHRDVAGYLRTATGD", "assay": "ELISA; p15 (2.5 μg/ml) coated on a 96-well plate, blocked with 1% BSA; CDK4 (5 μg/ml) added with 0–40 μg/ml enolase-1, 37 °C 2 h; bound CDK4 detected with anti-CDK4 antibody, HRP, TMB, 450 nm; both purified", "details": "remark: other sources report otherwise"}}, "note": "Results are given in words; binding and its absence hold for the method and conditions named. For some assays here: Binding seen in cells or lysates may run through a third protein. Some entries that bind do so weakly or less than the wild type.", "data": [{"molecule": "enolase-1 (Sino Biological), purified (from UniProt P06733 1-434) (enzyme)", "values": [{"measurement": "binding", "setting": "[1]", "value": "binds"}]}, {"molecule": "pyruvate kinase 2 (PKM2) (endogenous, mouse urothelial cells) (from UniProt P52480 1-531) (enzyme)", "values": [{"measurement": "binding", "setting": "[2]", "value": "no binding"}]}, {"molecule": "enolase-2 (endogenous, UMUC3) (from UniProt P09104 1-434) (enzyme)", "values": [{"measurement": "binding", "setting": "[3]", "value": "no binding"}]}, {"molecule": "enolase-1 (endogenous, UMUC3) (from UniProt P06733 1-434) (enzyme)", "values": [{"measurement": "binding", "setting": "[4]", "value": "no binding"}, {"measurement": "binding", "setting": "[3]", "value": "binds"}, {"measurement": "binding", "setting": "[5]", "value": "no binding"}, {"measurement": "binding", "setting": "[6]", "value": "binds"}]}, {"molecule": "B1", "values": [{"measurement": "binding", "setting": "[7]", "value": "binds"}]}]}
